The source of these data is paper PMC4336329 (PLoS ONE, 2015).

Among all 310,000 compounds or so, about 2,200 (0.71%) showed an effect of 50% or more. Effects have a minus sign here. Some of the results follow.

This test deals with human ether-à-go-go-related gene (hERG) potassium channel (human, UniProt Q12809). Description: primary screen, population patch clamp on CHO cells stably expressing hERG.
Chain of human ether-à-go-go-related gene (hERG) potassium channel (Q12809 whole entry, looked up): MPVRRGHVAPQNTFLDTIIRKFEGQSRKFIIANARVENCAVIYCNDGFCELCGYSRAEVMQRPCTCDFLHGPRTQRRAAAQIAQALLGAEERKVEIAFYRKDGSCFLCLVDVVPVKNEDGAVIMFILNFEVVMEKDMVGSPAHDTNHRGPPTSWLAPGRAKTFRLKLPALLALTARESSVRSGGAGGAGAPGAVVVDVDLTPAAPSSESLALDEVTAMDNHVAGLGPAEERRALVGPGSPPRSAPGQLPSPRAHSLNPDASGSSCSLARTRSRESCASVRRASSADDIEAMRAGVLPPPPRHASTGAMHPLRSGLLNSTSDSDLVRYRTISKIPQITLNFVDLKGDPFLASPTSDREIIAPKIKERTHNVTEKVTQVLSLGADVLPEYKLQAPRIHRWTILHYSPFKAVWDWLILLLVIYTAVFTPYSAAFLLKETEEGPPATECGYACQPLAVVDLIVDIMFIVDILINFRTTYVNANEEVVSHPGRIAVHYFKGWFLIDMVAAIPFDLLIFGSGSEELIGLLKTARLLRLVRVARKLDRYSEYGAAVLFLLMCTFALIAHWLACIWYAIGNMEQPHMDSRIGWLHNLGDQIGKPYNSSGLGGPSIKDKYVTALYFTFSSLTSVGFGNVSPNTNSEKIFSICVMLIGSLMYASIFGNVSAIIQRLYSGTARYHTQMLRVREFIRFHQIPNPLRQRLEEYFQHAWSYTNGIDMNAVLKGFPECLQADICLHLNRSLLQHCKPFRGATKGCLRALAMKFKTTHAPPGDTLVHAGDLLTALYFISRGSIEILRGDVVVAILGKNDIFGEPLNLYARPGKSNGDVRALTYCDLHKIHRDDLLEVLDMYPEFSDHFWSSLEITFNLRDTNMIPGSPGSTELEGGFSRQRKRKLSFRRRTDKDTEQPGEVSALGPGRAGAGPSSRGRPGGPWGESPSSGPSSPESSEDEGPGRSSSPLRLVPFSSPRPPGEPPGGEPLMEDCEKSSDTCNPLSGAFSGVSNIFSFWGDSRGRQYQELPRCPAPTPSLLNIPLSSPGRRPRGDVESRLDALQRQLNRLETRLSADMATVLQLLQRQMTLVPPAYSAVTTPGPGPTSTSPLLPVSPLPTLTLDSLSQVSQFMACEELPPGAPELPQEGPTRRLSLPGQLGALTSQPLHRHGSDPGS
In the case of `Cc1ccc(S(=O)(=O)NCc2ccc(C(=O)NC3CCC(C)CC3)cc2)cc1` (centres unmarked), the “hERG current change (%, negative = inhibition) at 1uM” value was 12.7%.

Take `CCCn1c(=O)c(C(=O)NCc2ccccc2Cl)c(O)c2ccccc21`: the “hERG current change (%, negative = inhibition) at 1uM” value was 9.85%. Turning to `Cc1ccc(C(=O)Nc2nnc(-c3ccc(C(C)(C)C)cc3)s2)cc1`, the “hERG current change (%, negative = inhibition) at 1uM” value is 7.36%.

Consider `Cc1cc(NC(=O)CSc2nnc(COc3cccc(C)c3C)n2C)no1`, for which the “hERG current change (%, negative = inhibition) at 1uM” value was determined as 12.2%. As to `Cc1cc(C(=O)Nc2ncn(Cc3ccc(F)cc3)n2)ccc1[N+](=O)[O-]`, the “hERG current change (%, negative = inhibition) at 1uM” value is -21.7%. With `Cc1ccc(C(=O)OCCc2sc[n+](Cc3ccccc3)c2C)cc1.[Cl-]` the figure was -30%. As to `O=C(Nc1ccon1)c1cccc(S(=O)(=O)N2CCCCC2)c1`, the “hERG current change (%, negative = inhibition) at 1uM” value is on record as 2.16%.

On to `CC(=O)c1ccc(NCC2COc3ccccc3O2)c([N+](=O)[O-])c1` (centres unmarked), for which the “hERG current change (%, negative = inhibition) at 1uM” value was found to be 7.67%. In the case of `Cc1cc2oc(C(=O)Nc3c(C)n(C)n(-c4ccccc4)c3=O)c(C)c2cc1Cl`, the “hERG current change (%, negative = inhibition) at 1uM” value is -23.5%.

As for `CCCOc1ccc(/C=C/C(=O)O)cc1OC`, the “hERG current change (%, negative = inhibition) at 1uM” value is 2.04%. For the molecule `COC(=O)c1sc(S(=O)(=O)Nc2ccc(C)c(C)c2)c(C(=O)OC)c1C`, the “hERG current change (%, negative = inhibition) at 1uM” value is recorded as 13.6%. Turning to `O=C(NCCCn1ccnc1)c1ccc(Cl)c(Cl)c1`, the “hERG current change (%, negative = inhibition) at 1uM” value is 1.57%.

As to `O=C(NNC(=S)NC(=O)c1ccccc1)c1cccnc1`, the “hERG current change (%, negative = inhibition) at 1uM” value turned out to be 16.7%. Turning to `Cc1cccc(C(C)C)c1NC(=O)COC(=O)CNS(=O)(=O)c1ccccc1`, the “hERG current change (%, negative = inhibition) at 1uM” value is on record as 13.8%. Consider `Cc1cc(C)nc(N2CCC(C(=O)NCCc3ccccc3)CC2)n1`, for which the “hERG current change (%, negative = inhibition) at 1uM” value was 12.6%. As to `COc1ccc(CNC(=O)CN(Cc2ccc(Cl)cc2)S(C)(=O)=O)cc1`, the “hERG current change (%, negative = inhibition) at 1uM” value was -8.55%. As to `Cc1cc(OCc2nnc(SCC(=O)OC3CCCCC3)o2)ccc1Cl`, the “hERG current change (%, negative = inhibition) at 1uM” value came to 2.16%. Take `CCc1ccc(N2C(=O)CN(Cc3ccccc3)C2=S)cc1`: the “hERG current change (%, negative = inhibition) at 1uM” value is 15.8%. As to `COc1ccccc1NC(=O)c1nnn(CC(=O)Nc2cccc(SC)c2)c1N`, the “hERG current change (%, negative = inhibition) at 1uM” value amounted to 3.19%. For `Cc1nc2scc(C)n2c(=O)c1S(=O)(=O)Nc1ccc(N2CCOCC2)cc1`, the “hERG current change (%, negative = inhibition) at 1uM” value is listed as 5.65%. Turning to `O=C(CN1C(=O)c2ccccc2C1=O)c1ccc(F)cc1`, the “hERG current change (%, negative = inhibition) at 1uM” value came out at 15.2%. As for `COc1cc(C(=O)NC2CCCC(C)C2C)ccc1OCC(=O)N1CCOCC1` (centres unmarked), the figure is 15.3%. With `Cc1ccccc1C(=O)NC1CC2CCCC(C1)N2C(=O)Nc1ccccc1` (centres unmarked) the figure was 6.06%.

On to `Nc1nc(CSc2nnnn2-c2ccc(Cl)cc2)nc(N2CCOCC2)n1`, for which the “hERG current change (%, negative = inhibition) at 1uM” value was 11.5%. As for `O=C1CSC(=S)N1N1C(=O)c2cccc([N+](=O)[O-])c2C1=O`, the figure is 5.64%; as for `O=C(CSc1ccc(Cl)cc1)NN=C1CCCCCC1`, -1.74%. With `O=C(Nc1ccc2c(c1)OCCO2)c1cc2sccc2n1Cc1ccc(F)cc1` the figure was 2.45%.

`Cc1ccccc1C(=O)NCC(=O)OC(C)C(=O)NCc1ccco1` (centres unmarked): the “hERG current change (%, negative = inhibition) at 1uM” value is listed as 11.4%.

In the case of `Cc1ccc(CN2C(=O)CCC2C(=O)NCCCN2CCCCC2C)cc1` (centres unmarked), the “hERG current change (%, negative = inhibition) at 1uM” value is reported as 7.26%. With `O=C(Nc1cccc(S(=O)(=O)N2CCCC2)c1)c1cc(S(=O)(=O)N2CCOCC2)ccc1F`, the “hERG current change (%, negative = inhibition) at 1uM” value came out at 2.43%. With `CC(C)CCNC(=O)c1ccc(Cn2c(=S)[nH]c3ccccc3c2=O)cc1` the figure was 10.9%; with `COC(=O)c1sccc1NC(=O)Nc1cc(OC)ccc1OC`, -0.927%; with `S=C(Nc1ccccc1)Nc1cccc(Cl)c1Cl`, 5.64%.

For `COc1ccc(NC(=O)CCc2c(C)nc3nc(CNC(=O)c4cccc(F)c4)nn3c2C)cc1OC`, the “hERG current change (%, negative = inhibition) at 1uM” value is reported as 29.1%. In the case of `O=C(NCCc1c[nH]c2ccccc12)c1ccc2c(c1)OCO2`, the “hERG current change (%, negative = inhibition) at 1uM” value is 8.47%. In the case of `CCN(CC)c1nc(N)c(C#N)c(CC#N)c1C#N`, the “hERG current change (%, negative = inhibition) at 1uM” value was -0.706%.

On to `COC(=O)c1sccc1NC(=O)c1ccc(Br)s1`, for which the “hERG current change (%, negative = inhibition) at 1uM” value was found to be 18.5%. With `Cc1ccc(NC(=O)N2CCC(O)(c3ccc(Cl)cc3)CC2)cc1` the figure was 11.7%. With `O=C([C@@H]1CCCN1C(=O)c1cccs1)N1CCN(S(=O)(=O)c2ccccc2F)CC1`, the “hERG current change (%, negative = inhibition) at 1uM” value was -3.57%. Turning to `CCN1CCc2c(OCC(=O)N3CCCCC3)cccc2C1=O`, the “hERG current change (%, negative = inhibition) at 1uM” value came out at 6.82%. As to `COc1ccc(C(=O)Nc2ccc(NC(=O)c3ccco3)cc2)cc1`, the “hERG current change (%, negative = inhibition) at 1uM” value stood at 16.5%.

For the molecule `CCOC(=O)C1=C(c2ccccc2)NC(=O)NC1c1cc(Cl)c(O)c(OC)c1` (centres unmarked), the “hERG current change (%, negative = inhibition) at 1uM” value worked out at 8.1%. Turning to `COC(=O)c1sc(NC(=O)COc2ccc(OC)cc2)nc1C`, the “hERG current change (%, negative = inhibition) at 1uM” value came out at 12.5%. For the molecule `COc1ccc(CC(=O)NCc2ccco2)cc1OC`, the “hERG current change (%, negative = inhibition) at 1uM” value is recorded as 12.7%.

Consider `COc1cc(-c2c(-c3ccsc3)sc3ccccc23)cc(OC)c1OC`, for which the “hERG current change (%, negative = inhibition) at 1uM” value came to 15.5%.

With `CC1CCN(C(=O)c2ccccc2SCC(=O)NCC2CCCCC2)CC1`, the “hERG current change (%, negative = inhibition) at 1uM” value was -5.24%. Turning to `O=C(COc1ccc(Cl)cc1Br)Nc1cccc(S(=O)(=O)N2CCCC2)c1`, the “hERG current change (%, negative = inhibition) at 1uM” value is listed as 10.3%. On to `CN1CCN(/N=C/c2cccc(Cl)c2Cl)CC1.Cl`, for which the “hERG current change (%, negative = inhibition) at 1uM” value was found to be 11.9%.

For the molecule `Cc1cc(C)c2nc(C)cc(N/N=C/c3ccc(O)cc3)c2c1`, the “hERG current change (%, negative = inhibition) at 1uM” value is -6.55%. With `c1ccc(NC2=Nc3ccccc3CC2)cc1` the figure was 6.29%. For the molecule `COc1cc2c(cc1OC)C(c1ccc([N+](=O)[O-])cc1)NC(=O)C2` (centres unmarked), the “hERG current change (%, negative = inhibition) at 1uM” value is listed as 6.17%. On to `Cc1nc(-c2ccc(S(=O)(=O)N3CCCN(CCc4ccccc4)CC3)s2)cs1`, for which the “hERG current change (%, negative = inhibition) at 1uM” value turned out to be 10.6%. On to `COc1cccc(-n2c(O)c(C=Nc3c(C)n(C)n(-c4ccccc4)c3=O)c(=O)[nH]c2=O)c1`, for which the “hERG current change (%, negative = inhibition) at 1uM” value was found to be 21.1%.

In the case of `CC(OC(=O)c1ccc(-n2cnnn2)cc1)C(=O)Nc1ccc(F)c(F)c1F` (centres unmarked), the “hERG current change (%, negative = inhibition) at 1uM” value stood at 9.74%. Turning to `O=C(C1CCN(S(=O)(=O)N2CCC3(CC2)OCCO3)CC1)N1CCC(Cc2ccccc2)CC1`, the “hERG current change (%, negative = inhibition) at 1uM” value was -0.692%.

In the case of `CCOC(=O)C1CCN(C(=O)c2[nH]c3ccc(OC)cc3c2C)CC1`, the “hERG current change (%, negative = inhibition) at 1uM” value amounted to 12.3%.
